Measurements published in the supplement of paper PMC4723716.
± gives the uncertainty stated by the source. Over roughly 9,900 compounds, “viability index relative to DMSO control” has its median near 1; the lowest 2% begin near 0.85. The list shows a part of the results.

Tested on: Plasmodium falciparum NF54 stage V gametocytes
Assay: viability index relative to DMSO control (fraction); higher = less gametocyte killing
Conditions: 2.5 µM, incubation time: 72 h
Procedure, shortened: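 P. falciparum NF54 stage V gametocytes in serum-free screening medium (0.75% gametocytemia, 1.25% hematocrit, 10 µl) were incubated with compound at 2.5 µM in 1,536-well plates for 72 hr at 37°C under low oxygen. Then 3 µl of 2.5 µM MitoTracker Red CMXRos plus 0.13% saponin was added for one to two hours. One field per well was imaged, 20–70 µm2 red particles were counted, and the viability index was the count divided by the plate mean of DMSO wells.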

[1] = library set: Broad Institute DOS

Structure (SMILES)	viability index [1]	viability index (library set: Broad Institute Blood Stage)
COc1ccc(C#Cc2ccc([C@H]3[C@H]4CN(C(=O)NC(C)C)CC(=O)N4[C@H]3CO)cc2)cc1	1.06 ± 0.017	
O=C(C1CCOCC1)N1CC(=O)N2[C@@H](CO)[C@H](c3ccc(C#CC4CCCCC4)cc3)[C@@H]2C1	1.09 ± 0.032	
COCCNC(=O)C[C@@H]1CC[C@@H]2[C@H](COC[C@H](O)CN2C(=O)c2cc(Cl)cc(Cl)c2)O1	1.125 ± 0.01	
O=C(C[C@@H]1C=C[C@H](NC(=O)Cc2ccccn2)[C@@H](CO)O1)NCCc1ccncc1	1.04 ± 0.022	
CCC(=O)Nc1ccc2c(c1)OC[C@H](C)N(Cc1ccccc1)C[C@H](C)[C@@H](OC)CN(C)C2=O	1.037 ± 0.0097	
CNC(=O)C[C@H]1CC[C@@H]2[C@H](COC[C@H](O)CN2Cc2ccccc2F)O1	1.09 ± 0.057	
COCCNC(=O)C[C@H]1CC[C@@H]2[C@H](COc3ccc(NS(=O)(=O)c4ccc(Cl)cc4)cc3C(=O)N2C)O1	1.17 ± 0.058	
CCCC#Cc1ccc([C@@H]2[C@@H](CO)N(C(=O)CN3CCOCC3)[C@H]2C#N)cc1	1.1 ± 0.13	
C/C=C/c1cnc2c(c1)C(=O)N([C@H](C)CO)C[C@@H](C)[C@H](CN(C)CC1CCOCC1)O2	1.04 ± 0.027	
COc1ccc2c3c([nH]c2c1)[C@H](CO)N(C[C@]31CN(Cc2cccnc2)C1)C(=O)CC1CC1	1.06 ± 0.061	
C[C@@H]1CCCCO[C@H](CN(C)C(=O)Cc2ccccc2)[C@H](C)CN([C@H](C)CO)C(=O)c2cc(NS(C)(=O)=O)ccc2O1	1.11 ± 0.053	
O=C(C[C@@H]1CC[C@H]2[C@@H](COC[C@@H](O)CN2C(=O)Nc2cccc(F)c2)O1)NCCCN1CCOCC1	1.01 ± 0.0084	
O=C(Nc1cc(F)ccc1F)N[C@@H]1CC[C@@H](CCn2cc(C3CCCCC3)nn2)O[C@H]1CO	1.1 ± 0.046	
CN1C(=O)c2cc(NC(=O)Nc3ccccc3F)ccc2OC[C@@H]2O[C@H](CC(=O)NCCc3ccncc3)CC[C@H]21	0.9776 ± 0.008	
CS(=O)(=O)N1C[C@@H]2N[C@H](C1)[C@@H]2c1ccc(-c2ccccc2)cc1	0.706 ± 0.03	
CN1C(=O)c2cc(NC(=O)c3ccc4c(c3)OCO4)ccc2OC[C@H]2O[C@@H](CC(=O)O)CC[C@@H]21	1.11 ± 0.071	
CN1C(=O)c2cc(NC(=O)Cc3cccs3)ccc2OC[C@H]2O[C@@H](CC(=O)NCc3ccc(-c4ccccc4)cc3)CC[C@@H]21	1.07 ± 0.054	
CNC[C@@H]1Oc2cc(C#Cc3ccccc3OC)ccc2S(=O)(=O)N([C@@H](C)CO)C[C@H]1C	0.886 ± 0.063	
COc1cccc(NC(=O)N2C[C@@H](O)COC[C@H]3O[C@@H](CC(=O)N(C)C)CC[C@@H]32)c1	1.04 ± 0.02	
C/C=C/c1ccc([C@H]2[C@H]3CN(C(=O)c4ccncc4)CC(=O)N3[C@H]2CO)cc1	0.976 ± 0.087	
Cc1noc(C)c1NC(=O)N1C[C@@H](O)COC[C@@H]2O[C@H](CC(=O)NCC3CC3)CC[C@H]21	1.06 ± 0.02	
COc1ccc(S(=O)(=O)N2CC[C@@H]3[C@@H](CO)Nc4ccc(Br)cc4[C@@H]32)cc1	0.97489 ± 0.00036	

Structure (SMILES)	viability index [1]	viability index (library set: Broad Institute Blood Stage)
COc1ccc(NC(=O)N2C[C@H](O)COC[C@@H]3O[C@@H](CC(=O)NCc4ccncn4)CC[C@H]32)cc1	1.076 ± 0.0021	
COc1cccc(S(=O)(=O)N2C[C@@H](O)COC[C@H]3O[C@H](CC(=O)N4CCN(c5ccccc5)CC4)CC[C@@H]32)c1	1.07 ± 0.066	
CCS(=O)(=O)N1C[C@@]2(C1)CN([C@H](CO)c1[nH]c3cc(OC)ccc3c21)C(=O)Cc1ccccn1	0.986 ± 0.062	
C[C@@H]1CN([C@@H](C)CO)C(=O)c2cc(NC(=O)Cc3ccccc3)ccc2O[C@@H](C)CCCCO[C@H]1CN(C)Cc1ccncc1	1.1 ± 0.063	
COc1cccc(C#Cc2ccc([C@H]3[C@@H](CO)N4C(=O)CN(C(=O)Cc5ccccc5)C[C@H]34)cc2)c1		0.778 ± 0.047
COc1cccc(NC(=O)N2CC(=O)N3[C@@H](CO)[C@H](c4ccc(C5=CCCCC5)cc4)[C@@H]3C2)c1	1.05 ± 0.037	
COc1ccc2c3c([C@@H](CO)N(C[C@]33CCN(CC3)C(=O)c3ccncc3)C(=O)C3CCOCC3)n(C)c2c1	1.02 ± 0.022	
N#C[C@H]1[C@H](c2ccc(C3=CCCCC3)cc2)[C@H](CO)N1C(=O)CN1CCOCC1	1.13 ± 0.046	
Cc1noc(C)c1NC(=O)Nc1ccc2c(c1)C(=O)N([C@@H](C)CO)C[C@@H](C)[C@@H](CN(C)Cc1ccc3c(c1)OCO3)OCCCC[C@H](C)O2	1.14 ± 0.22	
CC(C)C(=O)Nc1ccc2c(c1)C(=O)N(C)[C@H]1CC[C@H](CC(=O)NCCc3ccccc3)O[C@@H]1CO2	1.1 ± 0.11	
COc1cccc(S(=O)(=O)Nc2ccc3c(c2)C(=O)N(C)[C@@H]2CC[C@@H](CC(=O)NCC4CCCCC4)O[C@H]2CO3)c1	1.06 ± 0.046	
O=C(Nc1ccc(F)cc1)N1CC(=O)N2[C@@H](CO)[C@@H](c3ccc(-c4cccc(F)c4)cc3)[C@@H]2C1	0.978 ± 0.032	
CN(C)C(=O)C[C@@H]1C[C@H]2c3cc(NC(=O)Nc4ccc(F)cc4)ccc3O[C@H]2[C@@H](CO)O1	1.076 ± 0.0015	
C[C@@H]1CN([C@H](C)CO)C(=O)c2cc(NC(=O)C3CCCCC3)ccc2O[C@H]1CN(C)Cc1ccc2c(c1)OCO2	1.03 ± 0.0061	
CC(C)NC(=O)N1CC2(C1)[C@@H](c1ccccc1)[C@@H](CO)N2C(=O)C1CCOCC1	1.06 ± 0.022	
O=C(C[C@@H]1C[C@@H]2c3cc(NC(=O)c4ccc5c(c4)OCO5)ccc3O[C@@H]2[C@H](CO)O1)NCc1ccc(Oc2ccccc2)cc1	1.12 ± 0.15	
Cc1noc(C)c1NC(=O)N(C)C[C@@H]1OCCCC[C@H](C)Oc2ccc(NC(=O)Nc3ccc(C(F)(F)F)cc3)cc2C(=O)N([C@@H](C)CO)C[C@H]1C	1.08 ± 0.089	
CN1C(=O)c2cc(NC(=O)Cc3cccs3)ccc2OC[C@@H]2O[C@@H](CC(=O)N[C@H]3CCN(Cc4ccccc4)C3)CC[C@@H]21	1.12 ± 0.064	
Cc1cc(C(=O)Nc2cccc3c2O[C@H](CN(C)C)[C@@H](C)CN([C@H](C)CO)C3=O)n(C)n1	1.03 ± 0.024	
O=C(O)[C@H]1[C@H](CO)[C@H]2Cn3c(ccc(/C=C/c4ccccc4)c3=O)[C@H]2N1Cc1ccc2c(c1)OCO2	0.93 ± 0.002	
CO[C@@H](C(=O)N(C)C[C@@H]1OCc2ccccc2-c2ccccc2C(=O)N([C@H](C)CO)C[C@H]1C)c1ccccc1	0.961 ± 0.13	
C[C@@H]1CN([C@@H](C)CO)C(=O)c2c(c3ccccc3n2C)-c2ccccc2CO[C@@H]1CN(C)S(=O)(=O)c1ccc([N+](=O)[O-])cc1	0.998 ± 0.098	
